± gives the standard deviation of the averaged measurements. Some of the results follow.
Test system: PfAP2-G AP2 domain (GST-tagged)
Assay: gcPBM binding intensity (ln(normalized median fluorescence intensity)); higher = stronger DNA binding
Summary of the method: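 An Agilent 4 × 180k array of primer-extended double-stranded 36-bp intergenic genomic probes, with negative controls, was incubated for 1 h with GST-tagged P. falciparum DNA-binding domains expressed in E. coli. Alexa488 anti-GST antibody detected bound protein, scanned at 488 nm. Binding intensity is the highest Masliner-normalised natural-log median intensity across replicate spots of either probe orientation.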

Row | Sequence | gcPBM binding intensity (ln)
1 | TATAATAATACGTATTGTACTATTAGGTTAATTCGT [XGTACX_site264] | 11.1 ± 0.66
2 | TATATATATAAATACACACACATATATATATATATA [CACACA_site4867] | 10.3 ± 0.67
3 | TATTTATTTATTTATTTATTTATTTATTTATATTTA [CACACA_negctrl_site398] | 9.4 ± 0.085
4 | TATATATTTTTATTATGTACATATTAACAATGTGTT [XGTACX_site879] | 11.1 ± 0.76
5 | ATCCTCTTTACAATATGTACATAAATATATATTTAT [XGTACX_site8001] | 11.3 ± 0.69
6 | TAAAATATAAAACACACACACATATATATATATATT [CACACA_site224] | 9.7 ± 0.042
7 | TTATATAAATTATTTACACACAAACATTTATACTTT [CACACA_site3449] | 9.86 ± 0.085
8 | TTTCTAATTTATATCACACACATATTTATATAGTAA [CACACA_site6813] | 9.9 ± 0.18
9 | GGCGTATGTGTATATACACACCCACGTATATAAATA [CACACA_site7489] | 10.4 ± 0.37
10 | ATAAAATAAACATAAATAAACATAAATAAACAAAAA [CACACA_negctrl_site1270] | 9.805 ± 0.064
11 | AGGTATATATACATATGTACGTATATATATATATAT [XGTACX_site5115] | 11.4 ± 0.75
12 | TATAATACAACATGCACACATATATATGTGAATCTC [CACACA_site2490] | 10.06 ± 0.078
13 | TTTAAAAATAAAAGTACACACATAAACATATTACAC [CACACA_site1428] | 11.5 ± 0.94
14 | AAGATACCCCAAAATTGTACATATTAAAATAATAAA [XGTACX_site3603] | 11.3 ± 0.95
15 | TATTCCCTTCTTCCTTCTGTTTTTGATATTAAAGGG [GTGCAC_negctrl_site270] | 9.72
16 | ATACTTTATTCGTTAGCACACAATTCAAGTTGATTC [CACACA_site1123] | 10.1 ± 0.13
17 | ATGAAAGTAAGACATGCATGGAATTTTTTTTATTAG [TGCATGCA_site348] | 9.705 ± 0.078
18 | AAAAAAAAAAATAAATAAATAAATAAATATATATAT [TGCATGCA_negctrl_site468] | 9.68 ± 0.51
19 | TACATACATATATATACACACATATATAATATATAT [CACACA_site388] | 10.1 ± 0.21
20 | TATATATACATATACACACATACGTACATACATATA [CACACA_site3585] | 11.4 ± 0.82
21 | ATATTCATATATACTTCACACACATTTTATCATTCA [CACACA_site8784] | 9.99 ± 0.11
22 | GGAATATTTTATGAGTGTACATTTTTTTTTTTTTTT [XGTACX_site2370] | 11.2 ± 0.59

Row | Sequence | gcPBM binding intensity (ln)
23 | TTTCTTTTTTTTTTTTTTTCTTTTTTTTTTTTTTTC [CACACA_negctrl_site1025] | 9.66 ± 0.028
24 | ATAATCCAACTTTGAGTGCGTGGTGTTTTTTTTTTC | 10.01 ± 0.035
25 | CTGAAAAAAAAGCTTGCACACGTATTTGCTTTATGT [CACACA_site8427] | 10.5 ± 0.19
26 | TTACTTATAAATAAATATACAAAAATGTTATATATA [XGTACX_negctrl_site223] | 9.625 ± 0.078
27 | ATATGTCACTTGTATACACACATATATATTTCAATC [CACACA_site3256] | 10.2 ± 0.12
28 | GAAAATAGCTAAAATACACACAATTAAAAATTATTA [CACACA_site3506] | 9.84 ± 0.16
29 | AGGAATATAAAGTGCACACATAATTTGGGGGCAAAA [CACACA_site258] | 11 ± 0.54
30 | TTTTTTTTTTTTGAAGTGCATTACTTTTTTTGTATT [GTGCAC_site9811] | 9.91 ± 0.23
31 | TTTTTTGTGTTTGGTACACACGTTATAAAAAATAAA [CACACA_site4866] | 11.1 ± 0.88
32 | AGGGACATCTATATCACACACAAAAATTAGTCCCTT [CACACA_site7330] | 10.3 ± 0.15
33 | TTGTAAAACTTATAATGTACATTTTTTTTTTTTTTT [XGTACX_site5398] | 11 ± 0.51
34 | ATAAGAAAATATAAAATGCACACTATAAATTGTATA [CACACA_site143] | 9.88 ± 0.15
35 | TATATAGAGAGATATGCACACTGTATGAATGCCCCC [CACACA_site5476] | 11.1 ± 0.69
36 | TATACCTATATACATACATGCAAATATATATTCATA [TGCATGCA_site269] | 9.89 ± 0.028
37 | TTTTTTTTTTTTTGCACACACATTGAATTATTATTC [CACACA_site197] | 9.93 ± 0.38
38 | TTTATATACATTTTAAATTTTAATGTAACCCATGGG [TGCATGCA_negctrl_site115] | 10.2 ± 0.33
39 | TATATATTTATAAATGAACACACACCCAATTTGAAT [CACACA_site9113] | 10.5 ± 0.26
40 | TTTATTTTTATAAGAGCATGCACTGTTTAAAATGGT [TGCATGCA_site628] | 10.1 ± 0.42
41 | AAAAAAAAAAAAAGTACACACATACCTATAAATATA [CACACA_site6937] | 11.5 ± 0.96
42 | TTTACCTCTTCAATGGTGCAATAACTCAAAAATTTG | 10.2 ± 0.27
43 | TTTTTATTTTATTAGTGTACTTTATATTTAACAATA [XGTACX_site1175] | 11.5 ± 1
44 | ATAAATAAAATAAAAGCACACAAAATGTAAATAATT [CACACA_site8895] | 10.04 ± 0.057

Row | Sequence | gcPBM binding intensity (ln)
45 | TATTTCTGATTACATACACACATATACAGATATGAC [CACACA_site7490] | 10.1 ± 0.099
46 | TATATACCTATATACACACACATATATAAATAAATA [CACACA_site7341] | 9.78 ± 0.12
47 | AACAAATACAAAGAATAGTCATCTGAATGGTGTTAT [GTGCAC_negctrl_site685] | 9.87 ± 0.16
48 | TTATATATAATATATACACACACATGTATATATAAA [CACACA_site8603] | 9.885 ± 0.078
49 | TATGTTCCATTTTTTGGTACACATACAATAACTGCT [XGTACX_site2256] | 11.3 ± 0.82
50 | ATTACATACGAGCACACGTAAAAGTATAATATAAAA [GTGCAC_negctrl_site446] | 10.3 ± 0.31
51 | TTTGTATTGTGCAGATGTACATTATAATATTGGATT [XGTACX_site5033] | 11.1 ± 0.72
52 | ATTAATATGAAACGATTATAAGAAAGAAAAGAAATG [GTGCAC_negctrl_site701] | 9.9 ± 0.099
53 | TACATATACAGACACACACACACACCCCCACAAAAA [CACACA_site495] | 11.3 ± 0.82
54 | AAATTGAATTAGTTAACACACAACTTTTATTTCATA [CACACA_site2840] | 9.71 ± 0.16
55 | CATATACATATATGTAGTACGTGTTCTTCTATATGA [XGTACX_site8344] | 11.3 ± 0.72
56 | AGCATCATTTTACACACATGCAAATGTAAAATAGGA [TGCATGCA_site460] | 9.94 ± 0.057
57 | AAATTAATAAGTCACACACACATATATAATATATAT [CACACA_site799] | 10.05 ± 0.085
58 | AATATATACATTTATATACACACCTATATATATATA [CACACA_site1972] | 10.2 ± 0.24
59 | GTTATATGTTATATATATATATATATATATATATAT [TGCATGCA_negctrl_site428] | 9.81 ± 0.15
60 | ATAAAGATTAATTCAAGTACACATCAAATACTACAA [XGTACX_site8794] | 11.4 ± 0.82
61 | TATATATATTTATGTACACACATCAATCATATTAAC [CACACA_site5127] | 11.4 ± 0.92
62 | AAAAATAATGCACATATATATAATATGTATATGTAT [CACACA_negctrl_site443] | 9.92 ± 0.028
63 | CATGTATTTTATATTACACACTAATATTATATATAT [CACACA_site1508] | 9.94 ± 0.16
64 | GAATGTATAAAATGAACACACGCCAAATTAAATGAA [CACACA_site3044] | 9.99 ± 0.028
65 | TTTTAAACAAGACACACACACATATATATATATATA [CACACA_site925] | 10.3 ± 0.47
66 | TTATTGTAAATATATGCATGTGCAAAATGAAAAAAA [TGCATGCA_site399] | 9.98 ± 0.014

Row | Sequence | gcPBM binding intensity (ln)
67 | ATGTTTACATATTAGGGTACATAATAAATTGCATAT [XGTACX_site6712] | 11.2 ± 0.72
68 | TAGAGTATATATAAATGTACATATTTTATGCTAATT [XGTACX_site7821] | 11.2 ± 0.73
69 | AATAAACAAATATGTACACACATATACCTATAAATA [CACACA_site7358] | 11.4 ± 1
70 | CCAACATATATTATCACACACATATATATATATATA [CACACA_site2016] | 10.2 ± 0.48
71 | ATATTAGATTAATTTACACACAGAAAATGAGATTTT [CACACA_site541] | 9.705 ± 0.078
72 | AAAAAATTAAATAATTACAAAAAAATAAAATAAAAA [GTGCAC_negctrl_site638] | 9.44 ± 0.14
73 | ATAATGATTATAATATGTACATAAATATATATATTA [XGTACX_site5029] | 11.2 ± 0.64
74 | CGGATCTATAAGTGTACACAATCTAGCGAAAAGTTT [CACACA_site4932] | 11.6 ± 1
75 | AATTTGAAATAAAGTAGTACAGTATATAAAAATATA [XGTACX_site128] | 11.8 ± 1.1
76 | TTAGAAATTCATTTTACACACAATTCAAAAGAATGT [CACACA_site2104] | 9.81 ± 0.014
77 | AAAAAATCAAAACACACACACACACCCAAAAAAAAA [CACACA_site1444] | 10.4 ± 0.23
78 | AAACAATACATATATTGTACATATATTATATTATAT [XGTACX_site8136] | 10.8 ± 0.55
79 | ATAAAATAAAAAAGTAGTACACACTTCACGATATTT [XGTACX_site8289] | 11.5 ± 0.84
80 | ATTATGTTATATATATGTACATATATAATGTTCATA [XGTACX_site6184] | 11.1 ± 0.69
81 | AATAAATAAACAAATTAACACACAGAATTTTTTTTT [CACACA_site8485] | 9.68 ± 0.21
82 | ATAATTATAAAATAAACACACATATATATTTATATG [CACACA_site440] | 9.98 ± 0.16
83 | TTTTAGAGTGATATATATTAACTTTTAATAAAAAAA [CACACA_negctrl_site611] | 9.9 ± 0.25
84 | AAAATATAAGCCACTACACACATATATAAATGTATA [CACACA_site2639] | 10.1 ± 0.23
85 | TTTTTTTAAATTATATGTACATAATTTTAATTTTAT [XGTACX_site5086] | 11.3 ± 0.81
86 | TTGATATCTTTTTTTTGTACATATATTTATAAGTAA [XGTACX_site3538] | 11 ± 0.54
87 | GTTATACACATATATACACACATATGTAGATATATA [CACACA_site7529] | 10.04 ± 0.078
88 | TATAATATTCCTTTTTAACACACATATGAACAAATA [CACACA_site7932] | 10.1 ± 0.18
